In PubChem BioAssay AID1468 (National Center for Advancing Translational Sciences (NCATS), 2008):
Among all 280,000 compounds or so, about 1,100 (0.39%) were called active. The inconclusive results got no clear call from the source; some entries with a clear call stand among them for comparison. The call rests on the fitted dose curve; in most records, active means well fitted inhibition curve with a large enough effect; inconclusive means small, poorly fitted or top-dose-only effect, or effect the other way; inactive means flat fitted curve, though single readings scatter. A potency beside an inconclusive call is a rough fit, not a confirmed value.

biological target: Microtubule-associated protein tau (Homo sapiens) (UniProt P10636); experiment: qHTS for Inhibitors of Tau Fibril Formation, Fluorescence Polarization; conditions: K18 P301L tau heparin fibrillization, Alexa594 FP, 6 h; series mostly up to 57.7 µM; activity, negative = inhibition: at the top concentration; further: nearly all actives have a fitted effect of over 55% in size
Chain of UniProt P10636 (P10636 whole entry, looked up): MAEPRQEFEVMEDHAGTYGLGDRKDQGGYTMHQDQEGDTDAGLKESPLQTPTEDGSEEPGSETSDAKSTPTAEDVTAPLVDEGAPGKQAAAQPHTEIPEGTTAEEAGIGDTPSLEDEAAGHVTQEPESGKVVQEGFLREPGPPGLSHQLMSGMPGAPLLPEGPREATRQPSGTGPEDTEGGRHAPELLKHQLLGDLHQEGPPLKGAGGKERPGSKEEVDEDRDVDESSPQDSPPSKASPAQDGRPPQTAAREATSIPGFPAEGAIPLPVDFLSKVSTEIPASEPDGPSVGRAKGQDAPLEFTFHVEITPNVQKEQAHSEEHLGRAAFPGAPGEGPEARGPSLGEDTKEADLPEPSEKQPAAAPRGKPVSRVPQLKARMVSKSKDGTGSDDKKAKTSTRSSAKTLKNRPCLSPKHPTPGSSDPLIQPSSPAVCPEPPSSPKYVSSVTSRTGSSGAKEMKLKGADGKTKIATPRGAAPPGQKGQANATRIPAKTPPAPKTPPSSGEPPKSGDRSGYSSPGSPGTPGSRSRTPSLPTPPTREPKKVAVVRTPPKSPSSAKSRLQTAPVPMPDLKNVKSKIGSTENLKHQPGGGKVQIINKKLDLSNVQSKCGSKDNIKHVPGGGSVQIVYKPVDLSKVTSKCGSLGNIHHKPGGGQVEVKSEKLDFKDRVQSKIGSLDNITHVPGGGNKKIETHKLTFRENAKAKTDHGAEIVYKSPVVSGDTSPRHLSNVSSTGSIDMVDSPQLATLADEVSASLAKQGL
Summary of the method: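 Compound effects on tau fibrillization are measured by Alexa 594 fluorescence polarization (ex 555, em 632 nm). K18 P301L tau is used at 15 uM with 0.24 uM labeled tracer, and 20 uM heparin induces aggregation over 6 hr at 37 C.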
On the % scale 0 is the no-effect control and ±100 the full control effect; potency means the concentration at half of the fitted maximal effect; tags describe the fitted curve by direction and shape.

Potency, inactive:
CCCCC1=CC2=CC(=O)C(C)(OC(=O)CC)C(=O)C2=CN1C(CO)CO (centres undefined)

Potency, inconclusive:
COc1ccc(/C=N/Nc2cc(C)nc(-n3nc(C)cc3C)n2)cc1 22.4 µM [activator, single point], Cc1ccc(S(=O)(=O)c2c(O)cc(C)c(NS(=O)(=O)c3ccc(Br)cc3)c2C)cc1 39.8 µM [inhibitor, single point], CCSc1nn(CC(=O)Nc2cccc(CC)c2)c(N)c1S(=O)(=O)c1ccccc1 28.2 µM [inhibitor, single point], O=c1cc(-c2ccccc2O)oc2ccc3ccccc3c12 31.6 µM [inhibitor, single point], O=C(COC(=O)/C=C/c1cccc(F)c1)NNC(=O)c1ccccc1 39.8 µM [inhibitor, single point], O=Cc1cn(-c2ccccc2)nc1-c1cc2cc(O)ccc2oc1=O 44.7 µM [inhibitor, single point], CC(=O)Nc1ccc(C(=O)OCc2ccc(Cl)cc2)cc1 39.8 µM [inhibitor, single point], O=c1cc(-c2ccc(O)cc2)oc2cc(O)cc(O)c12 35.5 µM [inhibitor, single point], O=C(/C=C/c1ccccc1)Nc1cc(-c2nc3cc(Cl)ccc3o2)ccc1Cl 8.91 µM [inhibitor, partial curve], COc1ccc(NS(=O)(=O)c2ccc(NC(=O)C(CCSC)NC(N)=O)cc2)cc1 (centres undefined) 3.16 µM [inhibitor, full curve], Cn1nc(C(=O)N2CCCc3ccccc32)c2ccccc2c1=O 17.8 µM [inhibitor, partial curve], Cc1ccc(NC(=O)c2c(C)cc(C)nc2SCC(=O)Nc2ccc(Br)cc2)cc1 15.8 µM [inhibitor, partial curve], CN(C)c1ccc(N/C=C/C(=O)C(F)(F)F)cc1 28.2 µM [inhibitor, partial curve], NS(=O)(=O)c1ccc(CNC(=O)/C=C/c2ccco2)cc1 22.4 µM [inhibitor, partial curve], CC(=O)OCC1=C(C(=O)O)N2C(=O)C(NC(=O)Cc3cccs3)C2SC1 (centres undefined) 22.4 µM [inhibitor, partial curve, poor fit], CCN1CCSc2ccc(C(=O)NCc3ccc(OC(C)C)cc3)cc21 8.91 µM [activator, single point], CN(C)c1ccc(/C=C/c2nc(-c3ccccc3O)n(-c3ccccc3)n2)cc1 22.4 µM [activator, partial curve, poor fit], CC(=O)Oc1ccc(N2C(=O)C3C(C2=O)C(C(=O)c2ccc(Cl)cc2)N2CCCC32)cc1 (centres undefined) 39.8 µM [inhibitor, single point], CCOC(=O)C1(Cc2cccc(Cl)c2)CCCN(C(=O)c2cccc(C)n2)C1 (centres undefined) 0.631 µM [activator, full curve, poor fit], Cc1ccccc1OCC(=O)Nc1ccc(-c2nc3ccccc3o2)cc1 12.6 µM [inhibitor, partial curve], COC(=O)C1=C(N)c2ccccc2C1(C#N)c1ccccc1 (centres undefined) 2 µM [inhibitor, partial curve], COc1ccccc1NC(=S)NC(=O)/C=C/c1cccs1 39.8 µM [inhibitor, single point], CCOc1cccc(C(=O)c2ccc(O)c(O)c2O)c1 28.2 µM [inhibitor, single point], Cc1ccc(OCC(=O)c2ccc(Cl)s2)c([N+](=O)[O-])n1 28.2 µM [inhibitor, partial curve], CCOc1cc(/C=N/NC(=O)c2ccc(CSc3nncn3C)cc2)ccc1OCC(=O)N1CCOCC1 44.7 µM [inhibitor, single point], CCCCCOc1ccc(/C=C/C(=O)Nc2sc(C)c(C)c2C(=O)OCC)cc1OC 28.2 µM [inhibitor, single point], N#Cc1ccc(-c2ccc(F)cc2)nc1Oc1ccccc1 44.7 µM [inhibitor, single point], Cc1ccc(O)c(-c2cc(-c3ccccc3F)[nH]n2)c1 20 µM [inhibitor, single point], Cc1cccc(COc2ccc(/C=N/NC(=O)c3nnn(-c4nonc4N)c3COc3ccc(F)cc3)cc2)c1 1 µM [inhibitor, full curve, poor fit], CC(C)(C)C1CCc2c(sc(NC(=O)c3cc4ccccc4c(=O)o3)c2C(N)=O)C1 (centres undefined) 0.0891 µM [inhibitor, full curve, poor fit], CC(NC(=O)c1ccccc1NC(=O)CSc1nnnn1C)c1ccccc1 (centres undefined) 20 µM [activator, single point], COc1cccc(C2C(C(=O)NCc3ccccc3)=C(C)Nc3ncnn32)c1 (centres undefined) 10 µM [inhibitor, partial curve, poor fit], COc1ccc(OC)c(CNC(=O)CCN2C(=O)COc3ccccc32)c1 0.141 µM [inhibitor, full curve, poor fit], CCS(=O)(=O)n1nc(-c2ccc(Cl)cc2)nc1SCc1ccccc1 25.1 µM [inhibitor, single point], Cc1ccc(C(=O)COC(=O)c2cc(Cl)nc3ccccc23)cc1C 44.7 µM [inhibitor, single point], CCCCNc1ccccc1C(=O)OCC(=O)Nc1ccc(S(N)(=O)=O)cc1 22.4 µM [inhibitor, single point], CC(=O)C1=C(C)NC(SCc2cccc([N+](=O)[O-])c2)=C(C#N)C1c1ccco1 (centres undefined) 2.51 µM [inhibitor, partial curve], COc1ccccc1N1CCN(CC(O)COc2ccc(Cl)c(C)c2)CC1 (centres undefined) 0.0794 µM [inhibitor, full curve, poor fit], Oc1ccc(Cl)cc1-c1cc(-c2cccc(Br)c2)n[nH]1 17.8 µM [inhibitor, partial curve], COc1ccc2nc(/N=C(\N)NC(=O)Nc3ccccc3)nc(C)c2c1 44.7 µM [inhibitor, single point]

Potency, active:
Cc1cccc2c1c1ccc3c(c1n2C)C(=O)C=CC3=O 8.91 µM, Cc1cc(C)c(NC(=O)Cn2c(=O)c3cccn3c3ccccc32)c(C)c1 7.94 µM

activity, negative = inhibition, inactive:
COc1ccc(-c2nnc(SCC(=O)Nc3cccc(C(F)(F)F)c3)s2)cc1 -13.5%, CC(C)(C)NC(=O)COc1ccccc1C#N 2.62%, Cc1nn(C)c2c1c(C(F)(F)F)cc(=O)n2C(C)C(=O)Nc1ccccc1F (centres undefined) 3.76%, CC(C)(C)OC(=O)N1CCC(c2c(C(=O)NCc3ccccc3)cnn2-c2cccc(F)c2)CC1 4.36%, COc1ccccc1-c1nc2n(n1)C(c1ccccc1Cl)C(C(=O)Nc1cccnc1)=C(C)N2 (centres undefined) -11%, CCOC(=O)c1cnc2cc(C(F)(F)F)ccc2c1Nc1cc(C)ccc1OC -6.72%, Cc1oc(-c2ccc(Cl)cc2)nc1CN1CCCC(C(=O)NCCc2ccc(Cl)cc2)C1 (centres undefined) -1.01%, CCC12CCCN3CCC4(C(=C(C(=O)OC)C1)Nc1ccccc14)C32 (centres undefined) -1.84%, O=C(c1ccccc1)c1ccc(N2CCCC2)cc1 4.07%, O=C(NNC1=C(C(=O)C(F)(F)F)CCC1)c1cccc(O)c1 8.09%, CC(=O)c1ccc(NC(=O)C2(c3ccccc3)CCOCC2)cc1 -4.57%, CCOc1ccc(N2CC(NC(=O)c3ccco3)CC2=O)cc1 (centres undefined) -3.99%, Cc1cccc2cc(C#N)c(NCCNC(=O)COc3ccccc3)nc12 -0.998%, CCSc1ncc(Cl)c(C(=O)N2CCN(c3ccccc3OC)CC2)n1 -2.25%, COc1ccccc1S(=O)Cc1ccc(C(=O)NCCc2ccc(Cl)cc2)o1 (centres undefined) 5.37%, CCOC(=O)C1CCN(c2c(NCc3ccc(C(=O)NC4CCCC4)cc3)c(=O)c2=O)CC1 -11.6%, NCCC(=O)NCCc1cnc[nH]1 -13%, COc1cc(C)ccc1OCCOc1cc(C)ccc1Cl 4.84%, COc1cccc(NC(=S)N/N=C2\CC3CCC2(C)C3(C)C)c1 (centres undefined) 6.11%, C=CCc1cccc(CNc2ccc(Br)cc2)c1O 11.7%, Cc1ccc(CN(c2ccc(C(=O)N3CCCC3)cc2)S(C)(=O)=O)cc1 7.43%, O=C1CC(c2cccs2)Cc2nc(NC(=O)C3CC3)ncc21 (centres undefined) -7.51%, CN1CCN(c2ccc(S(=O)(=O)N3CCCCC3)cc2NC(=O)Cc2ccc(Cl)cc2)CC1 8.91%, Cc1ccc(OCCN2C(=O)c3ccccc3C2=O)c([N+](=O)[O-])c1 0.531%, COc1ccc(NC(=O)CN2C(=O)CC(c3ccc(C)c(C)c3)=Nc3ccccc32)cc1OC -0.744%, COc1ccc(-c2nn3c(C4CCCCC4)nnc3s2)cc1OC 5.65%, O=C(CN1CCC(n2nnc3cc(F)ccc32)CC1)NCc1ccco1 -7.63%, O=C(N/N=C/c1cccnc1)c1ccccc1OCc1cccc(Br)c1 2.91%, COC(=O)c1ccccc1NC(=O)c1ccc(CN2CC(=O)N3CCCCC3C2=O)cc1 (centres undefined) 7.25%, S=c1nc(-c2csc3c2CCCC3)[nH][nH]1 4.85%, Cc1ccccc1CNC(=O)Cn1c(=O)c2cccn2c2cccnc21 3.26%
